Data on 112 variants can be found in the RNAGym collection of RNA variant scans (doi:10.7554/elife.90254).

Read counts are not given, so values of variants with three or more changes are uncertain.

First the molecules themselves.
B1: LINE1-mini (parent)
chain: GGCAGAGCUCAACACAGCGUGGCAAAGUGGCUGUGGCUAGACUGCC

The variants in the series derive from B1. Nature of the series: self-cleavage, relative activity (ratio to wild type); higher = more cleavage; in vitro, sequencing; the parent is a self-cleaving ribozyme.
On to GGCUGAGCUGAACACAGCGCGGCAAAGUGGCUGUGGCCAGACUGCC, for which the self-cleavage is 0.01. With GGCGGAGCACAAUGUAGCGUGACAAAGGGGCUGUGCCUGGACUGCC, the self-cleavage turned out to be 0.02. As to GGCUGAGCUCAACACAGCGUGGCACGGUGGGUGUGGCUAUACUGCC, the self-cleavage amounted to 0.03.

Take GGCGGAGCGCAACACAGCGUUGCAAAGUGGCUGUGGCUAGACUGCC: the self-cleavage was determined as 0.04. Under GGCUGAGCUCAGCACAGCGUGGCAAAGUGGCUGUGGCUAGACUACC stands 0.26; under GGCUGAGCUCAGCACAGAGUGGCAAAGAGGCUGUGGCUAGACUGCC, 0.01; under GGCUGAGCUCAACACAGCGUGGCUAAGUGGCUGUGCCUAGACUUCC, 0.04. On to GGCUGCACUCAACACAUCGUGGCAAAGUGGCUGUGGCUAGACUGCC, for which the self-cleavage is 0.05. Next, GGCGGAGCUCAACACAGCGUGACAAAAUGGCUGUGGCGAGACUGCC: 0.03; GGCUGAGCUCAACACAGCGUGGCAUAGUGGGUGUGGCUAAACUGCC: 0.02. With GGCGGAGCUCAACACAGCGUGGCAAAGUGGCUGUGUCUAUACUGCC, the self-cleavage stood at 0.08.

GGCUGAGCUGAACACAGCGAAGCAAAGUGGCUGUGGCUAGACUGCC: the self-cleavage amounted to 0.04. GGCUGAGCUGAACACAGCGUGGCAAAGUGGCUGUGGCUCGACUGCC: the self-cleavage was found to be 0.03. Under GGCUGGGCUCAACACAGCGUGGCAAAGUGCCUGUGGCUAGACUGCC stands 0.12; under GGCUGAGCUAAACAUAGCGUGGCGAAGUGGCUGUGGCUAGACUGCC, 0.07; under GGCUGAGCUCAACUCAGCGUCGCAAAGUGGCUCUGGCUAGAUUGCC, 0.08. Next, GGCUGAGUUCAACAAAGAGUGGCAAAGUGGCUGUGGCUAGACUGCC: 0.28. As for GGCGGAGCUCAACACAGCGUGGCAAAGUGGCUAUGGCUAUACUGCC, the self-cleavage worked out at 0.12. Regarding GGCUGAGCUCAAUAUAGCGUGGCAAAGUGGCUGUGGCUGGACUGCU, the self-cleavage worked out at 0.02.

For GGCGGAGCUCAACACAGCGUGCCAAAGUGGCUGUGGCUAGACCGCC, the self-cleavage is 0.24. Under GGCUGAGCUCAACACAGCGUGGCGGAGUGGCUGUGGCUAGCCUGCC stands 0.04; under GGCUGAGCUCAACACAGCGUGGCAAGGUUGCUGUGGCUAGACUGCC, 0.14. Next, GGCGGAGCUCAACACAGCGUCGCAGAGUAGCUGUGGCUAGACUGCC: 0.68; GGCUGGGCUCAACACAGGGUGGCAAAGUGGCUUUGGUUAGACUGCC: 0.06. Under GGCUGAGCUAAACACAGCGUGGCAAAGUGGCUGUGGCUAGCCUGCC stands 0.01. Regarding GGCUGAGCUCGACACAGCGUGGCAAAGUAGCUGUGGCUAGACUGCC, the self-cleavage amounted to 0.04. Regarding GGCUGAGCUCAACAAAGCGUGGCAAAUUGGCUUUGGCUAGACUGCC, the self-cleavage stood at 0.03. Turning to GGCUGAGCUCAACACAGCGUGGCAACGUGGCUGUGGCUAGACAGCC, the self-cleavage was 1.08. Next, GGCGGAGCUCAACACAGCGUGGCAAAGUGGCUGAGGGUAGACUGCC: 0.04; GGCUGAGAUCAACAUAGCGUGGCAAAGUGGCUGUGGCUAGACUGCC: 0.1. For GGCUGAGCUCAGGACAGCGUGGCAAAGUGGCUGUGGCUAGACUGCC, the self-cleavage came out at 0.04. Consider GGCUGAGCUCAACACGGUGUGGCAAAGUGGCUGUGGCGAGACUGCC, for which the self-cleavage was 0.06. On to GGCUGAGCUCAACGCAGCUUGGCAAAGUGGCUGUGGCUAGACUGGA, for which the self-cleavage turned out to be 0.01. As to GGCUGGGCUCAACACUGCGUGGCAAAGUGGCUGUGGCUAGACUGCC, the self-cleavage is 0.26. With GGCUGAGAUCAACACAGCAUGGCAAAGUGGCUGUGGCUAGACUGCC, the self-cleavage came to 0.65. Under GGCGGAGCUCAACACAGCGUGGCAAAGAGGCCGUGGCUAGACUGCC stands 0.07; under GGCUGAGCUCAAAACCGCGUGGUAUAGUGGCUGUGGCUAGACUGCC, 0.05. With GGCUGAGCUCAACCCAGCGUGGCAAAGUGGCUGUGGUUAGACUGCC, the self-cleavage is 0.06. On to GGCGGAGCUCAACACAGCGUGGCAAAGUAUCUGUGGAUAGGCGGCC, for which the self-cleavage amounted to 0. Next, GGCUGAGCUCAAAACAGCAUGGAAAAGUGGCUGUGGCUAGACUGCC: 0; GGCGGAGCUCAACACAGCGUGGCAAAGUGUGUGGGGCUAGACGGCC: 0.01; GGCGGAGCUCAACACAGCGUGGCAAAGUUCCUGUGGCUAGACUGCU: 0.05. Next, GGCGGAGCUCAACACAGCGUGGCAAAGUUGCUGUGGCUAGACUGCA: 0.05. Under GGCUGUGCUCAACACAGCGUGGCAAAGUUGAUGUCGCUAGACUGCC stands 0.16; under GGCGGAGCUCAACACAGCGUGGCAAAGCUGCUGUGGCUAGACUACC, 0.02; under GGCGGAGCUCAACACAGCGUGUCAAAGUGGCCGUGGCUAGACUGCC, 0.2.

Turning to GGCUGAGGUCAACACAGUGUGGUAAAGCGGCUGUGGCUAGACUGCC, the self-cleavage was 0.11.

On to GGCUGAGCUUAUCACAGCGUGGCAAAGUGGCUGUGGCUACACUGCC, for which the self-cleavage is 0.05. Under GGCUGAGUUCAACAUAGCGUGGCAAAGUGGCUGUGGCAAGACUGCC stands 0.24. In the case of GGCUGGGCUCAACACAGCGUGGCAAUGUGGCUUUGGCUAGAUUGCC, the self-cleavage amounted to 0.14. Take GGCGGAGCUCAACACAGCGUGGCAAAGUGGCUGAGGUAAGACUGCC: the self-cleavage turned out to be 0.02. Next, GGCUGGGCUCAACACACCUUGGCAAAGUGGCUGUGGCUAGAAUGCC: 0.35; GGCUGAGCUCCACACAGCGUGGCACAGUGGCUGUGGCUAGACUGCC: 0.2; GGCUGAGCUCCACACAGCGUGGCAGAGUGGCUGUGGCUAGACUGCC: 0.03. Next, GGCUGAGGUCAACACACCGUGGCAAAGUGGCUGUGGCUAGACUGCC: 0.03; GGCUGAGCUCCACACAGCGUUGCAAAGUGGCCGUGGCUAGACUGCC: 0.06; GGCUGAGCUCAACACAGCGUGGCAACGGGGGUGUGGCUAGACUGCC: 0.05. On to GGCUGUGCUCAACACAGAGUGGCAAAGUGGAUGUGGCUAGACUGCA, for which the self-cleavage came to 0.06. In the case of GGCUGUGUUCAACACAGCGCGGCAAAGUGGCUCUGGCUACACUGCC, the self-cleavage turned out to be 0.03.

On to GGCUGAGCUCGACUCAGCGUGGCAAAGUGGCUGUGGCUAGACUGCC, for which the self-cleavage was found to be 0.03.

GGCGGAGCGCAACACAGCGUGUCAAUGUGGCUGUGGCUAGACUGCC: the self-cleavage came out at 0.09. Next, GGCUGAGCUAAACACAGCGUGGCAUAGUAGUUGUGGCUACACUACG: 0; GGCGGAGCUCAACACAGCGUGACAAAGUGGCUGUAGCUAGACUGCC: 0.11. Take GGCGGAGCUCAACACAGCGUGGCAAAGGGGCUGUGGGUUGACUGCC: the self-cleavage was 0.09. Under GGCUGUGCUCAGCACAGAGUGGCAAAGUGGCUCUGGCUAGACUGCC stands 0.01; under GGCGGAGCUCAACACAGCGAAGCAAAGGGGCUGUGGCUAAACUGCC, 0.11; under GGCUGAGCUCGACACAGCGUGGAAAAUUGGCUGUCGCUAGACUGCC, 0.03. Under GGCUGGGCUCAACAGAGCGUGGCAAAGUGGCUGUCGCUAGACUGCC stands 0.03.

GGCUGUGCUCAACAGAGCGUGGCAAAGUGGGUGUCGAUAGACGGCC: the self-cleavage turned out to be 0.

For the variant GGCGGAGCACAACACCGCGUUGCAAAGUGGUUGUGGCUAGACUGCC, the self-cleavage turned out to be 0.03. Under GGCUGAGCUCGACACAGCGUGGCAAACUGGCUGUCACUAGGCUGCA stands 0.02; under GGCUGAGCUCAGCACCGCGUCGCAAAGUGGCUGUGGCUAGACUGCC, 0.04.

On to GGCUGAGCUCAAUACAGCGUGGCAAAGUGGCUGUGGCUAGAUUGCC, for which the self-cleavage is 0.05. Turning to GGCGGAGCACAACACAGCCUGGCAAAGUGGCUAUGGAUAGACUGCC, the self-cleavage turned out to be 0.16. As to GGCGGAGCCCAACACAGCGGGGCAAAGCGGAUGUGGCUAGACUGCC, the self-cleavage was 0.02. Next, GGCUGAGCUCAAGACAGCGUGGCAAAGUGGCUGUGGCUAGACUGAC: 0.06; GGCUGAGCUUAACUCAGCGUGGCAAAGUGGCUGUGGCUAGACUGAC: 0.04. For GGCUGAGCUCAUCACAGCGUGACAAAUGGGCUAUGGCUAGACUGCC, the self-cleavage came to 0.02. For the variant GGCGGAGCUCAACACAGCGAGGCAAAGUGGCUGUGGCUUGACUGCC, the self-cleavage is 0.34. On to GGCGGAGCCCAACACAGCGUGGCAAAGUGGCUGUGGCUACACUGCC, for which the self-cleavage came to 0.03. Next, GGCGGAGCUCAACACAGCGUGGCAAAGUUGCUGUGGCUAGCCUGCC: 0.04. Turning to GGCUGAGCUAAACACAGCGUGGCAAAGUAGCGGUGGCUAUACUGCC, the self-cleavage stood at 0.03. Under GGCUGAGCUCAACACCGCGUGGCAAAGUGGCUGUGUCUAGACUGCC stands 0.18; under GGCUGGGCUCAACACAGCGUGGCAAAGUGGCUGUGGCUAGACCGCC, 0.06; under GGCUGAGCUCAACAAAGCGUGGCAAAGUGGCUAUGGCUCGACUGAA, 0.04. Next, GGCGGAGCCCAACACAGCGUGGCAAAGUGGCAGUGGCUAGACUGCC: 0.03; GGCUGAGAUCAACACAGCGUGGCAAAGUGGCUGUGGCGAGACUGCC: 0.09.

Turning to GGCUGUGAUCAACACAGCGUAGCAAAGUGGCUGUGGCUAGACUGCC, the self-cleavage was 0.54. With GGCUGAGUUAAACACAGCGUAGCAAAGUGGCUGAGGCUAGACUGCC, the self-cleavage was found to be 0.04.

GGCUGAGCUCAACAAAGCGCGGCAAAGUGGCUGUGGCUAGACUGCC: the self-cleavage came to 0.05. Turning to GGCGGAGCUCAACACAGCGUGGCAAAGUGGCUGCGCCUAGACUGCC, the self-cleavage was 0.01. GGCGGAGCUCAACACAGCGUGUCAAAGUGUCUGUGGCUAGACUGCU: the self-cleavage stood at 0.1. Under GGCUGAGCUCAACACGGCGUGGCAAAGUGACUGUGGCUAGACUGCC stands 0.07; under GGCUGAGCUUAACACAGCGUGGCAAGCGGGCUGUGGCUAGACUGCC, 0.05. Next, GGCUGAGCUUAACACAACGUGGCAAAGUGGCUGUGUCUAGACUGCC: 0.07; GGCGGAGCUCAACACAGCGUGGCAAACUGGCUGUAGCUAGACUGCC: 0.04. Regarding GGCUGAGCUGAACAAAGCGUGGCAAAGUGGCUGUGACUAGACUGCC, the self-cleavage was 0.06. For GGCUGAGCUCAACACAGCGUGGCCAAGUGGCUGUGGUUAUACUGCC, the self-cleavage stood at 0.01. GGCGGAGCUCAACACAGCGUGGCAAAGUGACUGUGGCUUGACUGCC: the self-cleavage was found to be 0.15. Next, GGCGGAGCUCAACACAGCGUGGCAAAUUGGCGGUGGUUAGACUGCC: 0.13; GGCUGAGCUCAUCACAGCGUGGAAAAGUGGCUGUGGCUAGACUCCA: 0.1; GGCGGAGCUCAACACAGCGUGGCAAAAUGACUGUGGCUAGACUGCC: 0.12. For GGCGGAGCUCAACACAGCGUGCCAAAGUGUCUGUGGCUAGACUGCC, the self-cleavage was determined as 0.81. With GGCGGAGCUCAACACAGCGUGGCAAAGUGACUGUGGCUAGUCUGCC, the self-cleavage was determined as 0.66. GGCGGAGCUCAACACAGCGUGGCAAAGUCGCUGUGGCUAGACUGAC: the self-cleavage was 0.17.

Regarding GGCUGAGCUCAACCCAGCGUGGCAAAGUGGGUGUGGCUAGACUGCC, the self-cleavage is 0. For the variant GGCUGUGUUCAACACAGCGUGGCAAAGUGUCUGUGGCUAGACUGCC, the self-cleavage was 0.04. GGCUGAGAUCAACACAGCGUGGCAAAGUGGCUGAGGCUAGACUGCC: the self-cleavage was found to be 0.04. On to GGCUGGUCUCAACACAGAGUGGCAAAGUGGCUGUGGCUAGACUGCC, for which the self-cleavage came out at 0.02. As to GGCUGAGCUCAGCACAACGUGACAAAGUGUCUGUGGCUAGAUUGCC, the self-cleavage came out at 0.01. In the case of GGCUGAGCUCAACACUGCGUGGCAAAGUGGCUCUGGCUAGCCUGCC, the self-cleavage is 0.02. As for GGCUGAGCUCAAUACCGCGUGGCAAAGUGGCAGUGGCGAGACUGCC, the self-cleavage was 0.01.
